# Laboratory results as given in the supplement of paper PMC8728848.
# The other results are listed elsewhere or left out.
# Experiments:
# Test in all cases: glycan array binding signal (z-score within array); higher = stronger binding
# Conditions in all cases: glycan notation: IUPAC condensed, linker removed
# [1] = target: Gal(b1-4)GlcNAc(b1-3)Gal(b1-4)GlcNAc
# In short: (§1)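 Glycan array data were curated from 3228 arrays in the Consortium for Functional Glycomics database and kept only where the protein sequence was available. Glycan names were converted to IUPAC-condensed notation, and columns mapping to the same glycan were averaged. The binding signal is a within-array Z-score, averaged across arrays of the same protein sequence at different concentrations or buffers and across linkers. Negative Z-scores can be read as non-binding.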
# [2] = target: Gal(b1-4)GlcNAc(b1-3)Gal(b1-4)GlcNAc(b1-3)Gal(b1-4)GlcNAc
# In short: as §1
# [3] = target: Gal(b1-4)GlcNAc(b1-3)Gal(b1-4)[Fuc(a1-3)]GlcNAc(b1-3)Gal(b1-4)[Fuc(a1-3)]GlcNAc
# In short: as §1
# [4] = target: Gal(b1-4)GlcNAc(b1-3)GalNAc
# In short: as §1
# [5] = target: Gal(b1-4)GlcNAc(b1-3)[Gal(b1-4)GlcNAc(b1-6)]Gal(b1-4)GlcNAc
# In short: as §1
# [6] = target: Gal(b1-4)GlcNAc(b1-3)[Gal(b1-4)GlcNAc(b1-6)]GalNAc
# In short: as §1
# [7] = target: Gal(b1-4)GlcNAc(b1-3)[GlcNAc(b1-6)]Gal(b1-4)GlcNAc
# In short: as §1
# [8] = target: Gal(b1-4)GlcNAc(b1-6)Gal(b1-4)GlcNAc
# In short: as §1
# [9] = target: Gal(b1-4)GlcNAc(b1-6)Gal(b1-4)GlcNAc(b1-6)GalNAc
# In short: as §1
# [10] = target: Gal(b1-4)GlcNAc(b1-6)GalNAc
# In short: as §1
# [11] = target: Gal(b1-4)GlcNAc(b1-6)[Gal(b1-3)]GalNAc
# In short: as §1
# [12] = target: Gal3S(b1-3)GalNAc
# In short: as §1
# [13] = target: Gal3S(b1-3)GlcNAc
# In short: as §1
# [14] = target: Gal3S(b1-3)[Fuc(a1-4)]GlcNAc
# In short: as §1
# [15] = target: Gal3S(b1-4)Glc
# In short: as §1
# [16] = target: Gal3S(b1-4)Glc6S
# In short: as §1
# [17] = target: Gal3S(b1-4)GlcNAc
# In short: as §1
# [18] = target: Gal3S(b1-4)GlcNAc6S
# In short: as §1
# [19] = target: Gal3S(b1-4)[Fuc(a1-3)]Glc
# In short: as §1
# [20] = target: Gal3S4S(b1-4)GlcNAc
# In short: as §1
# [21] = target: Gal3S6S(b1-4)GlcNAc
# In short: as §1
# [22] = target: Gal3S6S(b1-4)GlcNAc6S
# In short: as §1
# [23] = target: Gal4S(b1-4)GlcNAc
# In short: as §1
# [24] = target: Gal4S6S(b1-4)GlcNAc
# In short: as §1
# [25] = target: Gal6S(b1-4)Glc
# In short: as §1
# [26] = target: Gal6S(b1-4)Glc6S
# In short: as §1
# [27] = target: Gal6S(b1-4)GlcNAc
# In short: as §1
# [28] = target: Gal6S(b1-4)GlcNAc6S
# In short: as §1
# [29] = target: GalNAc(a1-3)Gal
# In short: as §1
# [30] = target: GalNAc(a1-3)GalNAc
# In short: as §1
binder,measurement,setting,value
"P-Selectin (Mus musculus), Q01102 (protein) MAGCPKGSWTPRLRSVILGGAQLIWFSALISELVNQKEVAAWTYNYSTKAYSWNNSRVFCRRHFTDLVAIQNKNEIAHLNDVIPFFNSYYWIGIRKINNKWTWVGTNKTLTEEAENWADNEPNNKKNNQDCVEIYIKSNSAPGKWNDEPCFKRKRALCYTASCQDMSCSNQGECIETIGSYTCSCYPGFYGPECEYVKECGKVNIPQHVLMNCSHPLGEFSFNSQCTFSCAEGYELDGPGELQCLASGIWTNNPPKCDAVQCQSLEAPPHGTMACMHPIAAFAYDSSCKFECQPGYRARGSNTLHCTGSGQWSEPLPTCEAIACEPPEIPIHGSMDCVPSTGTFGYNSSCTFLCAEGFVLKGNDAIQCADSGQWTAPAPFCEALQCPEFPVPSKAQVNCSDPFGTLTYQSVCSFSCDEGSLLVGASVIRCLATGHWNGAPPECQAVSCAPMLSPENGSMTCVQPLGNSTYKSTCQFMCDEGFYLSGPERLDCSPSGHWTGTPPTCEAIKCPGIFAPEQGNLDCSHVHGEFGVGSICHFSCNEDFELLGSENVECTVSGRWSAPPPTCKGITSLPAPAVRCPALTTPGQGTMSCQHHLGSFGPNTTCYFGCKTGFTLRGANSLRCRASGQWTAVTPMCRAVKCSELHMDTAVAMNCSNPWGNFSYGSTCTFQCPEGQSLNGSVRATCREDGHWSDAMPTCQAGTLTIQEALTYLGGAVASTTGLAVGGTLLALLRKRLRKKDDGKCPLNPHSHLGTYGVFTNAAYDPTP",glycan array binding signal (z-score),[1],-0.29
same,glycan array binding signal (z-score),[2],-0.525
same,glycan array binding signal (z-score),[3],0.718
same,glycan array binding signal (z-score),[4],-0.56
same,glycan array binding signal (z-score),[5],-0.375
same,glycan array binding signal (z-score),[6],-0.495
same,glycan array binding signal (z-score),[7],-0.268
same,glycan array binding signal (z-score),[8],-0.251
same,glycan array binding signal (z-score),[9],-0.265
same,glycan array binding signal (z-score),[10],-0.609
same,glycan array binding signal (z-score),[11],-0.474
same,glycan array binding signal (z-score),[12],-0.32
same,glycan array binding signal (z-score),[13],-0.121
same,glycan array binding signal (z-score),[14],3.6
same,glycan array binding signal (z-score),[15],-0.174
same,glycan array binding signal (z-score),[16],1.76
same,glycan array binding signal (z-score),[17],-0.284
same,glycan array binding signal (z-score),[18],1.04
same,glycan array binding signal (z-score),[19],4.89
same,glycan array binding signal (z-score),[20],-0.069
same,glycan array binding signal (z-score),[21],1.4
same,glycan array binding signal (z-score),[22],2.53
same,glycan array binding signal (z-score),[23],-0.332
same,glycan array binding signal (z-score),[24],1.47
same,glycan array binding signal (z-score),[25],-0.169
same,glycan array binding signal (z-score),[26],1.68
same,glycan array binding signal (z-score),[27],-0.055
same,glycan array binding signal (z-score),[28],0.426
same,glycan array binding signal (z-score),[29],-0.702
same,glycan array binding signal (z-score),[30],-0.612
